{"source": "patent EP0179751B1", "about": "“Ionophore polyether, process for its preparation and its use” (SANOFI, priority 1984, dated 1986)", "system": "flore ruménale", "assay": "in vitro rumen flora fermentation, nitrogen use", "data": [{"molecule": "COC1CC(CC(O)CCC(C)C=C(C)C(=O)O)OC2(OC(C)(C3CCC(C)(C4OC(C5OC(O)(CO)C(C)CC5C)CC4C)O3)CC2C)C1C", "note": "(centres unmarked) [abiérixine]", "values": [{"measurement": "effets sur l'activité microbienne ou sur la production de gaz à partir d'azote protéique", "value": "absence d'effets négatifs"}, {"measurement": "quantité d'azote ammoniacal fixée par les bactéries (synthèse microbienne)", "value": "ne diminue pas significativement"}]}]}
